Measured values from the supplement of paper PMC10126150.
Sequences with one replicate were seen in a single cluster, so their values are uncertain.

tested on: ATP; experiment: switch fluorescence ratio, 500 uM ATP over buffer (Cy3 cluster intensity, sum of 5 cycles each) (fold (ratio)); higher = stronger signal-on switching upon ATP binding; sequences stand for … in TCGTCGGCAGCGTCAGATGTGTATAAGAGACAGTTTTTTTTTTTTTTTTTTTTTTTTT…TC; details: aptamer strand: ATP DNA aptamer (quencher-CACCTGGGGGAGTATTGCGGAGGAAGG + anchor), 100 nM annealed; ATP concentration: 500 uM; one replicate
Procedure, shortened: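 Clusters carrying Cy3-labelled switching strands on a modified Illumina MiSeq flow-cell were annealed to 100 nM quencher-labelled ATP aptamer and imaged in selection buffer. They were imaged again after 15 min with 500 uM ATP at 22 °C, over five buffer/ATP cycles with NaOH stripping and re-annealing in between. For each cluster, the fluorescence ratio is the summed Cy3 intensity of the target cycles divided by that of the buffer cycles, averaged per switch-domain sequence. Clusters outside 100-1000 RFU were left out.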
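Also: ATP exposure 15 min at 22 °C before imaging.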

Sequence | switch fluorescence ratio
CCTTGGATGT | 0.984
CCTTGGCGAC | 3.44
CCTTGGCGCC | 1.02
CCTTGTGGCG | 1.01
CCTTTAATCT | 1.04
CCTTTCACTA | 1.08
CCTTTCATCG | 1.25
CCTTTCTGGT | 0.996
CCTTTGCTTG | 1.05
CCTTTGGGG | 0.968
CCTTTGTGCT | 1.02
CCTTTTCCTG | 1.02
CGAAAAAAGC | 1.13
CGAAATAATA | 1.02
CGAAATAGTG | 1.03
CGAAATGGGG | 0.945
CGAAATTATC | 1.05
CGAACAAACT | 1.02
CGAACAATCG | 1.01
CGAACAGTTG | 0.99
CGAACCCGTG | 1.13
CGAACCTAGA | 1.02
CGAACGTTGG | 1.04
CGAAGAATTT | 0.99
CGAAGACGCG | 1.2
CGAAGAGATA | 0.955

Sequence | switch fluorescence ratio
CGAAGAGCGG | 0.988
CGAAGAGTAT | 0.954
CGAAGATTTC | 1
CGAAGCCTTA | 1.09
CGAAGCGGAG | 1.21
CGAAGCGTTC | 3.85
CGAAGGAGTT | 0.969
CGAAGGCTAT | 1.16
CGAAGGGG | 1.14
CGAAGGGTAC | 1.85
CGAAGTATTG | 1.01
CGAAGTTGCA | 0.982
CGAATATTA | 1.06
CGAATCAATG | 1.06
CGAATCCTTT | 0.999
CGAATGGGGC | 0.994
CGAATTCTAA | 0.987
CGAATTGTGT | 0.99
CGAATTTCCT | 1.03
CGAATTTGGC | 1.01
CGACAATGT | 1.12
CGACATAACG | 1.07
CGACATCTAA | 1.05
CGACATTC | 1.12
CGACCCTATT | 1.07
CGACCGAGCG | 1.05

Sequence | switch fluorescence ratio
CGACCGCGGT | 1.06
CGACGAGAAA | 1.03
CGACGAGATT | 1.25
CGACGCGAGG | 3.35
CGACGGCGCG | 1.05
CGACGGGTGG | 1
CGACGGTTA | 1.16
CGACGTGCTA | 1.21
CGACTCATT | 1.14
CGACTCCCGA | 1.78
CGACTGCGAA | 1.55
CGACTTGTGC | 0.984
CGAGAAGGGC | 1.05
CGAGACGGG | 1
CGAGACGTTT | 0.991
CGAGAGAGGT | 0.962
CGAGATAGTT | 0.987
CGAGATGCGG | 0.996
CGAGCACTGG | 1.35
CGAGCAGAGG | 1.13
CGAGCCTGGA | 0.987
CGAGCCTTAG | 1.05
CGAGCGGCCC | 1.11
CGAGCGTAGT | 0.994
CGAGCTTGTT | 1
CGAGGAAGTG | 1

Sequence | switch fluorescence ratio
CGAGGATCGG | 1.02
CGAGGCATAG | 3.6
CGAGGCCCTT | 1.46
CGAGGCTGCG | 1
CGAGGGCACT | 1.04
CGAGGGCATA | 1.8
CGAGGGCTC | 1.02
CGAGGGCTTC | 0.999
CGAGGGGGT | 0.979
CGAGGGGTCT | 0.969
CGAGGTAATC | 2.51
CGAGGTGAG | 1
CGAGTAAAGG | 1.01
CGAGTAACTT | 0.997
CGAGTATCGG | 0.975
CGAGTCCCCG | 0.986
CGAGTGAGGA | 1.01
CGAGTTAAAC | 1.11
CGAGTTACAT | 1.06
CGAGTTTACA | 0.992
CGATACTGGT | 1
CGATAGTCG | 0.999
CGATAGTTCG | 0.953
CGATCACCTT | 1.08
CGATCGGTGT | 1.02
CGATCTGTCT | 0.974

Sequence | switch fluorescence ratio
CGATGACAAG | 0.995
CGATGAGACG | 1.04
CGATGAGATA | 1.04
CGATGATG | 1.02
CGATGCAGGT | 1.08
CGATGCCGGT | 0.982
CGATGGCTGA | 0.989
CGATGGCTTC | 1.04
CGATGTGTCG | 0.935
CGATTAAAAG | 0.986
CGATTAGCTA | 1.05
CGATTATTGG | 1.01
CGATTCCAAT | 1.04
CGATTCGTAG | 1.03
CGATTCTCGT | 0.987
CGATTGCACT | 1.09
CGATTTAATC | 0.99
CGATTTAGGT | 1.01
CGATTTCGGA | 1.01
CGCAAATGGA | 1.28
CGCAACGAAT | 1.05
CGCAACTTTC | 1.72
CGCAATGCGT | 4.98
CGCACCGTCA | 1.04
CGCACCTTAT | 1.11
CGCACTACGG | 3.64

Sequence | switch fluorescence ratio
CGCACTGTAT | 1.16
CGCAGACAAC | 1.61
CGCAGAGGGG | 1.05
CGCAGATAGT | 1.26
CGCAGCAGCT | 2.11
CGCAGGATT | 1.11
CGCAGGGTAC | 3.56
CGCATAGGAG | 1.35
CGCATATGGT | 1.77
CGCATATTA | 1.48
CGCATGACTC | 5.33
CGCATGCGTA | 0.957
CGCATGGCGG | 0.981
CGCATTAGGT | 1.2
CGCATTCGAT | 1.43
CGCCAAAGAA | 0.984
CGCCAATGTT | 1.09
CGCCAGCTTG | 0.981
CGCCCACCCT | 1.04
CGCCCCATGG | 1.73
CGCCCGGCCT | 0.887
CGCCCGGTGG | 0.987
CGCCCTAAAT | 1.03
CGCCCTAGGT | 1.42
CGCCCTATTC | 1.22
CGCCCTGCCA | 0.969

Sequence | switch fluorescence ratio
CGCCGAGCTG | 1.04
CGCCGGCTGG | 1.05
CGCCGGGTAA | 1.02
CGCCGTGAGC | 1.17
CGCCGTTAAA | 1.04
CGCCTAGAAC | 1.06
CGCCTGATCA | 0.969
CGCCTGGATC | 1.08
CGCGAACACC | 1.11
CGCGAGAAGT | 1.01
CGCGAGCCGG | 0.936
CGCGAGGCGG | 1.03
CGCGAGGGGG | 1.04
CGCGATAGGT | 1.28
CGCGATTTCT | 1.24
CGCGCACTAG | 1.53
CGCGCAGGAT | 1.06
CGCGCCCCTC | 1.11
CGCGCCTTAG | 1.02
CGCGCCTTCG | 1.14
CGCGCGCTCT | 0.995
CGCGCGGTCA | 0.973
CGCGCTCCCT | 3.74
CGCGGACATT | 1.05
CGCGGCATAT | 1.72
CGCGGCCTAG | 0.981

Sequence | switch fluorescence ratio
CGCGGCCTCA | 1.13
CGCGGCTTTG | 1.07
CGCGGGAAAT | 1.03
CGCGGGATGA | 1.02
CGCGGGCCGG | 0.944
CGCGGGTTGT | 0.993
CGCGGTGAAT | 1.01
CGCGGTTCGT | 0.985
CGCGTAAGGG | 1.03
CGCGTATCAT | 0.998
CGCGTCAAAG | 1
CGCGTCTTCT | 1.01
CGCGTCTTGA | 1
CGCGTGCCAA | 1.08
CGCGTGGGG | 1.09
CGCGTGGTGT | 1.01
CGCGTTAGTC | 1.04
CGCTAAATT | 1.07
CGCTAACTGT | 1.06
